Results published in PubChem BioAssay (NCI).
“And” between values parts separate entries of the source, which are not always exact repeats. Identical values can stand only once.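 Grown in 96-well plates, cells were treated for 48 hours with each compound at five concentrations. Insufficient inhibition: endpoint recorded as highest concentration tested. The concentration for 50% growth inhibition is given as GI50. TGI: total growth inhibition.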

These molecules were tested on NCI-H322M lung (assay: NCI anticancer screen, dose series, 48 h).

| Compound | GI50 | TGI |
| --- | --- | --- |
| Cc1cccc2c(C(=O)O[C@H](C(N)=O)[C@]3(C)CO3)cccc12 | 7.93 µM | 19.6 µM |
| COC(=O)c1cc(-c2ccc(OC)c(OC)c2)oc1-c1ccc(OC)c(OC)c1 |  | > 100 µM |
| Cc1ccc(C2(c3ccc(C)cc3)SC(=C(C#N)C#N)c3ccccc32)cc1 |  | > 100 µM |
| COC(=O)C(CC(=O)c1ccccc1)c1ccccc1NC(C)=O (stereo not drawn) |  | > 100 µM |
| Cc1cc(C)c(-c2cc(O)c(-c3c(C)cc(C)cc3C)cc2O)c(C)c1 | 7.48 µM | > 100 µM |
| Cc1ccc(NC(=O)OCC(COc2ccc(Cl)cc2)OC(=O)Nc2ccc(C)cc2)cc1 (stereo not drawn) |  | > 100 µM |
| CC(C)C(=O)OCC1CCCN2CCCCC12 (stereo not drawn) |  | > 100 µM |
| C[C@@]12C(=O)OC(=O)[C@]1(C)[C@H]1CC[C@@H]2O1 | 1.67 µM | 4.33 µM and 5.71 µM |
| Cc1cc2c([nH]1)CSc1cc(S(=O)(=O)c3ccccc3)c(=O)[nH]c1-2 | 26.2 µM | > 100 µM |
| COCN1C(=O)C2CC(/C=C/C(N)=O)=CN2C(=O)c2ccccc21 (stereo not drawn) |  | > 100 µM |
| O=C(/C=C/c1cccc(Br)c1)c1ccc(Cl)cc1 |  | 35.6 µM |
| Cc1cc(-c2ncc(-c3cccnc3)cc2/C=C/c2ccccc2)cnc1-c1cccnc1 | 5.75 µM | > 100 µM |
| O=C1/C(=C/c2ccccc2)CN(C(=O)C(F)(F)F)C/C1=C\c1ccccc1 |  | 18.6 µM |
| O=C(N=Nc1c(O)[nH]c2c(Cl)cc(Cl)cc12)c1ccccc1O |  | 32.4 µM |
| COc1cc(C=O)cc(/C=N/N=C/c2ccccc2O)c1O |  | > 100 µM |
| Cn1ncc2c(Sc3ccc(Cl)cc3)ncnc21 | 16.1 µM | > 100 µM |
| Cc1cccc(NC(=O)/C=C/c2ccccc2)c1C |  | > 100 µM |
| COc1ccc(N2C(=O)C3CC(c4ccc(C)cc4)c4c([nH]c5ccccc45)C3C2=O)cc1 (stereo not drawn) |  | > 82.6 µM |
| O=C(Oc1cccc2cccnc12)c1cc2cc(CCl)ccc2oc1=O |  | > 100 µM |
| CCOC(=O)/C=C(\C(=O)OCC)n1ccc(=O)n(Cc2cnnn2COCCOC(C)=O)c1=O |  | > 72.2 µM |
| C/C(CCn1[nH]c(=O)ccc1=O)=N\N=C(N)N |  | > 100 µM |
| CCOC(=O)COc1ccc(OCC(=O)OCC)c2c1C(=O)CCCC2=O |  | > 100 µM |
| COCC(=O)Oc1cc(-c2ccc(C)cc2C)c(OC(=O)COC)c(-c2ccc(C)cc2C)c1 | 13.9 µM | 45.3 µM |
| O=C(O/N=C1/CCCC/C1=C\c1ccccc1)c1ccc(Cl)c(Cl)c1 |  | 86.8 µM |

| Compound | GI50 | TGI |
| --- | --- | --- |
| O=C1Cc2c([nH]c3ccccc23)C2(CC3CCCCN13)OCCO2 (stereo not drawn) |  | > 100 µM |
| CCCCNc1nc2nc[nH]c2c(=O)[nH]1 |  | > 100 µM |
| N=c1oc2c(O)c(O)ccc2cc1C(N)=O |  | > 100 µM |
| C=C(C)C(=O)Oc1ccc(N=Nc2ccc(C)cc2)ccc1=O | 2.4 µM | 9.56 µM |
| COc1ccc(=[O+]C)c2nssc1-2 |  | > 100 µM |
| N#CCN1c2ccccc2CCC1Cl (stereo not drawn) |  | > 10 µM |
| O=C(O)CNC(=O)C(CSC(=O)OCC1c2ccccc2-c2ccccc21)NC(=O)CCC(NC(=O)OCC1c2ccccc2-c2ccccc21)C(=O)O (stereo not drawn) |  | > 100 µM |
| COc1cc(-c2nc3ccccc3s2)ccc1OCCCCCOc1cc2c(cc1OC)C(=O)N1CCC[C@H]1C=N2 | 0.923 µM | 13.2 µM |
| NS(=O)(=O)N(c1cc(C(F)(F)F)cc(C(F)(F)F)c1)C1CCN(Cc2ccc(F)cc2)CC1 | 11.5 µM | 23.6 µM |
| NCCOc1ncccc1/C=C1\c2ccccc2-c2ccc(F)cc21 | 1.74 µM | 3.86 µM |
| CC(C)(C)c1ccc(C(=O)Nc2sc3c(c2C#N)CCC(=O)C3)cc1 | 11.8 µM | > 100 µM |
| N#CCCN(CCC#N)CCN(CCN(CCC#N)CCC#N)CCN(CCC#N)CCC#N |  | > 100 µM |
| CN(C)CCn1nc2c3c(c(C(=O)NCCCN(C)CCCNC(=O)c4ccc5c6c(nn5CCN(C)C)-c5ccccc5Nc46)ccc31)Nc1ccccc1-2 |  | 0.531 µM |
| Cc1ccc(/C=N/Nc2ccccn2)s1 |  | > 100 µM |
| Cc1[nH]c2nccn2c(=O)c1CCCl |  | > 100 µM |
| COc1cc(Nc2cnc3cc(N)ccc3n2)cc(OC)c1OC |  | > 100 µM |
| O=C(N/S(=N/S(=O)(=O)c1ccc(Br)cc1)C(Cl)(Cl)Cl)c1ccccc1 (stereo not drawn) |  | > 100 µM |
| CCCCCCCCc1cc[n+](CC(=O)c2ccc(Br)cc2)cc1 | 2.62 µM | 8.24 µM |
| CC1=CN(c2ccccc2)S2=C1c1sc3c(c1N2c1ccc(Br)cc1)CCCC3 (stereo not drawn) |  | > 100 µM |
| COc1cc(C2=NNC(c3ccc(N(C)C)cc3)C2)cc(OC)c1OC (stereo not drawn) | 12.3 µM | > 100 µM |
| O=C1/C(=C/c2ccc(Cl)cc2)COc2ccc(O)cc21 | 11.8 µM | 25.8 µM |
| Cc1cc(NN)nc2n[nH]c(N)c12 |  | > 100 µM |
| CCC12CCCN3CCc4c(n(c5ccccc45)C(O)(C(=O)OC)C1)C32 (stereo not drawn) |  | > 100 µM |
| CC1CSC(=S)N1C(=O)N1C(=S)SCC1C (stereo not drawn) |  | 85.4 µM |

| Compound | GI50 | TGI |
| --- | --- | --- |
| [O-]c1ccccc1/C=N/c1nccs1.[O-]c1ccccc1/C=N/c1nccs1.[O]=[U+2]=[O] | > 100 µM | > 100 µM |
| COc1cc(Br)cc2cc(C3=CSC4=NCCN34)c(=O)oc12 |  | 34.7 µM |
| CC(=O)C(C)CCOC1(C)OCCC1C (stereo not drawn) |  | > 100 µM |
| CC(=O)OCC1OC(n2c(-c3ccc(C)cc3)cc(-c3ccco3)c(C#N)c2=S)C(OC(C)=O)C(OC(C)=O)C1OC(C)=O (stereo not drawn) |  | > 100 µM |
| CNc1ccc(C(=O)CC(O)CCC(C)C2OC(=O)CC(O)CC(=O)CC(O)CC(O)CC(O)CC(O)CC3(O)CC(O)C(C(=O)NCCN(C)C)C(CC(OC4OC(C)C(O)C(NC(=O)CN5CCN(CCO)CC5)C4O)/C=C/C=C/C=C/C=C\C=C/C=C/C=C/C2C)O3)cc1 (stereo not drawn) | 0.183 µM | 0.778 µM |
| CC[C@@]1(O)C[C@H](OC2CC(N(C)C)C(OC3CC(O)C(OC4CC(O)C(O)C(C)O4)C(C)O3)C(C)O2)c2c(cc3c(c2O)C(=O)c2c(O)ccc(O)c2C3=O)[C@H]1C(=O)OC (stereo partly drawn) |  | 0.423 µM |
| COc1cccc(C2c3cc4c(cc3OC(NNc3ccccc3)C2C)OCO4)c1O (stereo not drawn) |  | 24.4 µM |
| N#C/C(=N/Nc1nc[nH]c1C(N)=O)C(=O)Nc1ccccc1 |  | > 100 µM |
| C[n+]1c(-c2ccccc2)cc2/c(=C\c3ccccc3)c3ccccc3n21 |  | 13.8 µM |
| CCCCCCCCc1ccc(OCCOCC[N+](C)(C)CC)cc1 (tested in a mixture with another compound) | 13.5 µM | 27.1 µM |
| FC(F)(F)c1ccc(-c2cnc(Cl)nc2NC2CCCCCC2)cc1 | > 100 µM | > 100 µM |
| COc1cc2oc3c(c(=O)c2c(O)c1/C=C/C(C)C)CCC(C)(C)Oc1cc(O)ccc1-3 |  | 63.3 µM |
| COc1ccc(OC)c(NC(=O)C2=C(C)NC(C)=C(C(=O)Nc3cc(OC)ccc3OC)C2c2ccco2)c1 |  | > 100 µM |
| O=C1C=CC(=O)c2c(O)c(NCCCN3CCOCC3)c(Cl)c(O)c21 |  | 3.3 µM |
| CN(C)CC1CCC(=C2CCCC2)C1=O (stereo not drawn) |  | 31.8 µM |
| COc1cc2c(c(OC)c1OC)-c1cccc(=O)cc1C(NC(C)=O)CC2 (stereo not drawn) |  | 2.5 µM |
| C=CCCC1CCCNC1=S (stereo not drawn) |  | > 100 µM |
| OCc1nnn2c1CCC2 |  | > 100 µM |
| CS(=O)(=O)Nc1cc(-c2ccc3ncnc(Nc4ccc5c(cnn5Cc5cccc(F)c5)c4)c3c2)cnc1Cl | 0.691 µM | 3.64 µM |
| O=C(c1c2c(cc3c1CC1(Cc4cc5c(cc4C1)CCCC5)C3)CCCC2)C(Br)Br |  | > 100 µM |
| N#C/C(=C\c1cc(F)cc(F)c1)c1ccccn1 |  | > 100 µM |
| O=C(NNC(=O)c1ccccc1O)c1ccccc1O |  | > 100 µM |
| COc1ccc(Nc2nccc(Nc3ccc4[nH]ncc4c3)n2)cc1 | 4.48 µM | 38.2 µM |
| O=C(c1ccccc1)C(C(=O)c1ccccc1)c1nc2ccccc2sc1=O |  | > 25 µM |

| Compound | GI50 | TGI |
| --- | --- | --- |
| CS(=O)(=O)N1CC(CI)c2ccc(O)cc21 (stereo not drawn) |  | 18.8 µM |
| c1ccc(-c2cc(-c3cccs3)c(-c3cccs3)s2)cc1 |  | > 100 µM |
| O=C(O)C1[C@@H](C(=O)O)C1(Br)CBr (stereo partly drawn) |  | > 100 µM |
| O=P(O)(O)C(NCC(O)CN1CCOCC1)P(=O)(O)O (stereo not drawn) |  | > 100 µM |
| Cn1c(=O)c2nc3c4ccccc4c(=O)n(C)c3nc2n(C)c1=O |  | > 100 µM |
| CCCCc1ccc(-n2c(C)c(COC(=O)NC)c(COC(=O)NC)c2C)cc1 |  | 23 µM |
| CCCc1c(Cl)nc(Cl)nc1Cl |  | 19.6 µM |
| CN(C)C=Nc1ccc2[nH]c3ccccc3c2c1 |  | > 100 µM |
| O=S1CCN(Cc2ccc(-c3ccc4ncnc(Nc5ccc(OCc6ccccc6)c(Cl)c5)c4c3)o2)CC1 | 0.708 µM | > 25 µM |
| CC(C)CC(C(N)=O)C(=O)NC(Cc1ccccc1)NC(=O)CNC(=O)C(C)NC(=O)C(N)Cc1ccc(O)cc1 (stereo not drawn) |  | > 100 µM |
| COc1ccc(C2N(c3ccc(F)c([N+](=O)[O-])c3)C(=O)N3C(c4ccc(OC)cc4)N(c4ccc(F)c([N+](=O)[O-])c4)C(=O)N23)cc1 (stereo not drawn) |  | > 100 µM |
| CC1(C)SC2C(NC(=O)C(C(=O)O)c3ccccc3)C(=O)N2C1C(=O)O (stereo not drawn) |  | > 100 µM |
| CCCC[C@@H](C)/C=C1\CN2CCC[C@H]2[C@@](C)(O)[C@@H]1O |  | > 100 µM |
| NC(N)=N/N=C(/CC1OC(=O)c2ccccc21)c1ccc2ccccc2c1 (stereo not drawn) |  | 42.2 µM |
| COP(C)(=O)C1=CCN(C(=O)OCC[Si](C)(C)C)CC1 (stereo not drawn) |  | > 100 µM |
| Cc1ccccc1-n1c(=O)sc2c(=O)n(-c3ccccc3)c(=S)[nH]c21 |  | > 100 µM |
| COc1ccc2nc3ccccc3c(NCCN(C)CCCl)c2c1 |  | 3.4 µM |
| COc1cccc2c1-c1ccccc1[C@H](Nc1ccccc1)[C@@]2(C)O |  | 23.5 µM |
| COc1ccc(NCc2cc(OC)c(OC)c(OC)c2)cc1 | 0.294 µM and 1.44 µM |  |
| C/C=C/[C@@H]1[C@H]2C(=O)[C@]3(Cl)[C@@H](/C=C/C)[C@@H]3C(=O)[C@@]12Cl |  | > 100 µM |
| Cn1cc(-c2nc3c(F)cc4[nH]ncc4c3c3c2CCCC3)c(C(F)(F)F)n1 | 17.9 µM | 87.8 µM |
| COc1ccc2nc(NNC(=O)c3cnccn3)c3cccn3c2c1 | 0.273 µM | 35.9 µM |
